The supplement of paper PMC4604168 (melanoma cell lines)
The other results are listed elsewhere or left out. Repeats are few or missing, and single values can be far off.

Each molecule was assayed on C32 (assay: cell count relative to DMSO control; melanoma cells; higher = more viable cells). Conditions: library dose: low library concentration; 72 h.
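Further: cell number obtained by counting DAPI-stained nuclei in high-throughput microscope images with image analysis software, screen run in 1,536-well plates.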

Row | SMILES | cell count [%]
1 | Cc1ccc(Nc2nccc(N(C)c3ccc4c(C)n(C)nc4c3)n2)cc1S(N)(=O)=O [Pazopanib] + CC(C)C[C@H](NC(=O)[C@H](Cc1ccccc1)NC(=O)c1cnccn1)B(O)O [Bortezomib] (first compound 0.4 µM, partner dose 0.001 µM) | 103
2 | O=C(/C=C/c1cccnc1)NCCCCC1CCN(C(=O)c2ccccc2)CC1 + CCCCCCCCc1ccc(CCC(N)(CO)CO)cc1 [fingolimod] (first compound 0.01 µM, partner dose 2 µM) | 92.3
3 | CC1(C)CCC(c2ccc(Cl)cc2)=C(CN2CCN(c3ccc(C(=O)NS(=O)(=O)c4ccc(N[C@H](CCN5CCOCC5)CSc5ccccc5)c(S(=O)(=O)C(F)(F)F)c4)cc3)CC2)C1 + CCN(CC)CCNC(=O)c1c(C)[nH]c(/C=C2\C(=O)Nc3ccc(F)cc32)c1C [sunitinib] (first compound 0.4 µM, partner dose 0.4 µM) | 61.4
4 | CC1(C)CCC(c2ccc(Cl)cc2)=C(CN2CCN(c3ccc(C(=O)NS(=O)(=O)c4ccc(N[C@H](CCN5CCOCC5)CSc5ccccc5)c(S(=O)(=O)C(F)(F)F)c4)cc3)CC2)C1 + C[C@@H](N)c1ccc(C(=O)Nc2ccnc3[nH]ccc23)cc1 [RKI983] (first compound 0.4 µM, partner dose 0.4 µM) | 33.1
5 | CC1(C)CCC(c2ccc(Cl)cc2)=C(CN2CCN(c3ccc(C(=O)NS(=O)(=O)c4ccc(N[C@H](CCN5CCOCC5)CSc5ccccc5)c(S(=O)(=O)C(F)(F)F)c4)cc3)CC2)C1 + O=C(O)c1ccc(-c2c[nH]c3ncc(-c4ccccc4)cc23)cc1C1CCCC1 [GSK650394] (first compound 0.4 µM, partner dose 0.16 µM) | 65.7
6 | O=C(/C=C/c1cccnc1)NCCCCC1CCN(C(=O)c2ccccc2)CC1 + C[C@@H](Oc1cc(-c2cnn(C3CCNCC3)c2)cnc1N)c1c(Cl)ccc(F)c1Cl [Crizotinib] (first compound 0.01 µM, partner dose 0.2 µM) | 112
7 | O=C(/C=C/c1cccnc1)NCCCCC1CCN(C(=O)c2ccccc2)CC1 + Cn1cnc2c(F)c(Nc3ccc(Br)cc3Cl)c(C(=O)NOCCO)cc21 [selumetinib] (first compound 0.01 µM, partner dose 0.015 µM) | 86.2
8 | CC1(C)CCC(c2ccc(Cl)cc2)=C(CN2CCN(c3ccc(C(=O)NS(=O)(=O)c4ccc(N[C@H](CCN5CCOCC5)CSc5ccccc5)c(S(=O)(=O)C(F)(F)F)c4)cc3)CC2)C1 + CN(C)S(=O)(=O)c1ccc2c(c1)/C(=C/c1cc3c([nH]1)CCCC3)C(=O)N2 [SU6656] (first compound 0.4 µM, partner dose 0.4 µM) | 31.6
9 | CC1(C)CCC(c2ccc(Cl)cc2)=C(CN2CCN(c3ccc(C(=O)NS(=O)(=O)c4ccc(N[C@H](CCN5CCOCC5)CSc5ccccc5)c(S(=O)(=O)C(F)(F)F)c4)cc3)CC2)C1 + O=C(CCCCCCC(=O)Nc1ccccc1)NO [vorinostat] (first compound 0.4 µM, partner dose 0.08 µM) | 74.5
10 | O=C(/C=C/c1cccnc1)NCCCCC1CCN(C(=O)c2ccccc2)CC1 + CN(C)S(=O)(=O)c1ccc2c(c1)/C(=C/c1cc3c([nH]1)CCCC3)C(=O)N2 [SU6656] (first compound 0.01 µM, partner dose 0.4 µM) | 99
11 | CC1(C)CCC(c2ccc(Cl)cc2)=C(CN2CCN(c3ccc(C(=O)NS(=O)(=O)c4ccc(N[C@H](CCN5CCOCC5)CSc5ccccc5)c(S(=O)(=O)C(F)(F)F)c4)cc3)CC2)C1 + COc1ccc(C2=N[C@@H](c3ccc(Cl)cc3)[C@@H](c3ccc(Cl)cc3)N2C(=O)N2CCNC(=O)C2)c(OC(C)C)c1 [Nutlin-3] (first compound 0.4 µM, partner dose 0.1 µM) | 44.1
12 | CC1(C)CCC(c2ccc(Cl)cc2)=C(CN2CCN(c3ccc(C(=O)NS(=O)(=O)c4ccc(N[C@H](CCN5CCOCC5)CSc5ccccc5)c(S(=O)(=O)C(F)(F)F)c4)cc3)CC2)C1 + CCCS(=O)(=O)Nc1ccc(F)c(C(=O)c2c[nH]c3ncc(Cl)cc23)c1F [PLX4720] (first compound 0.4 µM, partner dose 0.08 µM) | 59.4
13 | O=C(/C=C/c1cccnc1)NCCCCC1CCN(C(=O)c2ccccc2)CC1 + Clc1ccc(Nc2nnc(Cc3ccncc3)c3ccccc23)cc1 [vatalanib] (first compound 0.01 µM, partner dose 2 µM) | 106
14 | CC1(C)CCC(c2ccc(Cl)cc2)=C(CN2CCN(c3ccc(C(=O)NS(=O)(=O)c4ccc(N[C@H](CCN5CCOCC5)CSc5ccccc5)c(S(=O)(=O)C(F)(F)F)c4)cc3)CC2)C1 + CO[C@H]1C[C@@H]2CC[C@@H](C)[C@@](O)(O2)C(=O)C(=O)N2CCCC[C@H]2C(=O)O[C@H]([C@H](C)C[C@@H]2CC[C@@H](OCCO)[C@H](OC)C2)CC(=O)[C@H](C)/C=C(\C)[C@@H](O)[C@@H](OC)C(=O)[C@H](C)C[C@H](C)/C=C/C=C/C=C/1C [everolimus] (first compound 0.4 µM, partner dose 0.02 µM) | 64.4
15 | Cc1ccc(Nc2nccc(N(C)c3ccc4c(C)n(C)nc4c3)n2)cc1S(N)(=O)=O [Pazopanib] + C=CCNC1=C2C[C@@H](C)C[C@H](OC)[C@H](O)[C@@H](C)/C=C(\C)[C@H](OC(N)=O)[C@@H](OC)/C=C\C=C(/C)C(=O)NC(=CC1=O)C2=O [Tanespimycin] (first compound 0.4 µM, partner dose 0.002 µM) | 91.4
16 | CC1(C)CCC(c2ccc(Cl)cc2)=C(CN2CCN(c3ccc(C(=O)NS(=O)(=O)c4ccc(N[C@H](CCN5CCOCC5)CSc5ccccc5)c(S(=O)(=O)C(F)(F)F)c4)cc3)CC2)C1 + Cc1cc(Nc2cc(N3CCN(C)CC3)nc(/C=C/c3ccccc3)n2)n[nH]1 [ENMD2076] (first compound 0.4 µM, partner dose 0.04 µM) | 50.5
17 | O=C(/C=C/c1cccnc1)NCCCCC1CCN(C(=O)c2ccccc2)CC1 + COc1cc(Nc2ncc(F)c(Nc3ccc4c(n3)NC(=O)C(C)(C)O4)n2)cc(OC)c1OC [Tamatinib] (first compound 0.01 µM, partner dose 0.4 µM) | 119
18 | Cc1ccc(Nc2nccc(N(C)c3ccc4c(C)n(C)nc4c3)n2)cc1S(N)(=O)=O [Pazopanib] + OCc1c[nH]c2ccccc12 [Indole-3-carbinol] (first compound 0.4 µM, partner dose 0.8 µM) | 116
19 | CC1(C)CCC(c2ccc(Cl)cc2)=C(CN2CCN(c3ccc(C(=O)NS(=O)(=O)c4ccc(N[C@H](CCN5CCOCC5)CSc5ccccc5)c(S(=O)(=O)C(F)(F)F)c4)cc3)CC2)C1 + CS(=O)(=O)c1ccc(C(=O)Nc2ccc(Cl)c(-c3ccccn3)c2)c(Cl)c1 [vismodegib] (first compound 0.4 µM, partner dose 1 µM) | 62.8
20 | CC1(C)CCC(c2ccc(Cl)cc2)=C(CN2CCN(c3ccc(C(=O)NS(=O)(=O)c4ccc(N[C@H](CCN5CCOCC5)CSc5ccccc5)c(S(=O)(=O)C(F)(F)F)c4)cc3)CC2)C1 + Cn1c(=O)n(-c2ccc(C(C)(C)C#N)cc2)c2c3cc(-c4cnc5ccccc5c4)ccc3ncc21 [NVP-BEZ235] (first compound 0.4 µM, partner dose 0.004 µM) | 79.5
21 | CC1(C)CCC(c2ccc(Cl)cc2)=C(CN2CCN(c3ccc(C(=O)NS(=O)(=O)c4ccc(N[C@H](CCN5CCOCC5)CSc5ccccc5)c(S(=O)(=O)C(F)(F)F)c4)cc3)CC2)C1 + C=CCn1c(=O)c2cnc(Nc3ccc(N4CCN(C)CC4)cc3)nc2n1-c1cccc(C(C)(C)O)n1 [MK1775] (first compound 0.4 µM, partner dose 0.02 µM) | 61.5
22 | O=C(/C=C/c1cccnc1)NCCCCC1CCN(C(=O)c2ccccc2)CC1 + OCc1c[nH]c2ccccc12 [Indole-3-carbinol] (first compound 0.01 µM, partner dose 0.8 µM) | 94.3
